Assay results from the BET-seq Pho4 binding data (Le et al. 2018).
The list shows a part of the results. These are noisy estimates, calculated here from bound and input reads.

Target: T1, Pho4 (S. cerevisiae) (UniProt P07270)
T1 sequence: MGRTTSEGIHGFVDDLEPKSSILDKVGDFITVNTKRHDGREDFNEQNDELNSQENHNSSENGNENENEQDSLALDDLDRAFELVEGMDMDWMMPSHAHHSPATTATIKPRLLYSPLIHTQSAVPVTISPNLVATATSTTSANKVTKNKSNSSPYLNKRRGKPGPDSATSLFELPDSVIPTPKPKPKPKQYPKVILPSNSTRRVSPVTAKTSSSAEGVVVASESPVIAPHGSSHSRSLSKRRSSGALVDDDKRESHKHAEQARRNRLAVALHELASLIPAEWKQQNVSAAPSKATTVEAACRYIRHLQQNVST
Assay: relative binding free energy (BET-seq); higher = weaker binding
Conditions: reference: library average

Row | Sequence | relative binding free energy
1 | GTTATCACGTGCGTGT | 0.08 kcal/mol
2 | GGTGTCACGTGGAGTA | 0.16 kcal/mol
3 | AGGCTCACGTGGTATT | 0.13 kcal/mol
4 | TTTAGCACGTGGAAGC | 0.04 kcal/mol
5 | TGGTCCACGTGGTATG | -0.12 kcal/mol
6 | CTGGGCACGTGCGGCA | -0.17 kcal/mol
7 | AGGCTCACGTGGGTTC | 0.19 kcal/mol
8 | TATCTCACGTGTGTCT | 0.35 kcal/mol
9 | GCGCACACGTGGGTGG | -0.09 kcal/mol
10 | ATTTTCACGTGTTTAA | 0.22 kcal/mol
11 | TTTGGCACGTGTGATA | -0.11 kcal/mol
12 | ATTCGCACGTGTATTG | 0.02 kcal/mol
13 | GTATTCACGTGAGTGG | 0.32 kcal/mol
14 | ATCATCACGTGGTTGA | 0.18 kcal/mol
15 | TCTGGCACGTGTTGGT | 0.06 kcal/mol
16 | TGTGACACGTGGAACG | 0.14 kcal/mol
17 | ATGTCCACGTGGCTGG | 0 kcal/mol
18 | GCTTCCACGTGTGTTG | 0.17 kcal/mol
19 | GAGTGCACGTGGTCAA | -0.06 kcal/mol
20 | TTCAACACGTGATGGG | 0.21 kcal/mol
21 | TTGGTCACGTGATAGT | 0.27 kcal/mol
22 | TTTCACACGTGTTTGT | 0.03 kcal/mol
23 | AGCGGCACGTGTGATT | -0.07 kcal/mol
24 | TAATGCACGTGATGAT | 0.18 kcal/mol
25 | AATATCACGTGGGTTA | 0.11 kcal/mol

Row | Sequence | relative binding free energy
26 | TGTAACACGTGTTTGT | -0.12 kcal/mol
27 | AGTAACACGTGTTTGG | 0.01 kcal/mol
28 | GTTTTCACGTGTCGTT | 0.32 kcal/mol
29 | CGAAGCACGTGTTTTG | -0.07 kcal/mol
30 | AGTGTCACGTGGCTAT | -0.05 kcal/mol
31 | TTAAACACGTGTTCTG | -0.1 kcal/mol
32 | TACGGCACGTGCGGTA | -0.13 kcal/mol
33 | TTTCACACGTGTTGTC | 0.14 kcal/mol
34 | ATTAGCACGTGAGATT | 0.22 kcal/mol
35 | GTGTCCACGTGTGGTA | -0.03 kcal/mol
36 | AGGTACACGTGATAGT | 0.11 kcal/mol
37 | TGTGTCACGTGATGTC | 0.06 kcal/mol
38 | TTGGACACGTGTAGGG | 0.2 kcal/mol
39 | TTATGCACGTGGGGAG | -0.14 kcal/mol
40 | GTACACACGTGTGGAG | 0.04 kcal/mol
41 | TGGGCCACGTGTGGAT | 0.09 kcal/mol
42 | CTTGTCACGTGGTCTG | 0 kcal/mol
43 | TGCAGCACGTGGTATT | -0.06 kcal/mol
44 | AGAAGCACGTGTTGCG | -0.08 kcal/mol
45 | GTAGGCACGTGAACTG | 0.03 kcal/mol
46 | AATTACACGTGTGGAG | 0.23 kcal/mol
47 | TTGGCCACGTGGTACG | -0.03 kcal/mol
48 | GGTTACACGTGTAGGA | 0.18 kcal/mol
49 | TGCGCCACGTGTGGGT | 0 kcal/mol
50 | GAGGTCACGTGGTTGT | 0.17 kcal/mol

Row | Sequence | relative binding free energy
51 | CTTAACACGTGTTGAT | 0.12 kcal/mol
52 | GAGTGCACGTGGATTT | 0.16 kcal/mol
53 | GGGTTCACGTGTGAAA | 0.28 kcal/mol
54 | TTACGCACGTGGTCGT | -0.22 kcal/mol
55 | GGAGCCACGTGTTGTG | 0 kcal/mol
56 | ATTCTCACGTGAGGTG | 0.33 kcal/mol
57 | AGGGACACGTGGGGTA | -0.31 kcal/mol
58 | TTTTTCACGTGCAAGA | 0.28 kcal/mol
59 | TGGTTCACGTGTTAAG | 0.32 kcal/mol
60 | CTTAGCACGTGGGGCT | -0.19 kcal/mol
61 | CTATTCACGTGTTAGG | 0.18 kcal/mol
62 | GTATTCACGTGGTTTG | 0.21 kcal/mol
63 | AGCTTCACGTGTGGGG | 0.27 kcal/mol
64 | AGGCACACGTGTTTTA | 0.08 kcal/mol
65 | TAGGTCACGTGTAGCT | 0.21 kcal/mol
66 | CTAGCCACGTGTGGGG | 0.04 kcal/mol
67 | ATATCCACGTGTGGAG | 0.16 kcal/mol
68 | AGACGCACGTGGCAGG | -0.04 kcal/mol
69 | AGTTGCACGTGTTGGT | 0.08 kcal/mol
70 | CTGTGCACGTGGAGTT | -0.05 kcal/mol
71 | CAATGCACGTGTGGTT | 0.08 kcal/mol
72 | CGTAGCACGTGAGGTT | 0.05 kcal/mol
73 | TCCTGCACGTGTTGTT | -0.04 kcal/mol
74 | GCTGACACGTGGGGTA | -0.23 kcal/mol
75 | AACTGCACGTGTGTGT | 0.02 kcal/mol

Row | Sequence | relative binding free energy
76 | GGCGACACGTGGAGTG | 0.01 kcal/mol
77 | ATTTACACGTGTAGTG | 0.02 kcal/mol
78 | GTTTTCACGTGATTTC | 0.41 kcal/mol
79 | GATGTCACGTGTATAA | 0.21 kcal/mol
80 | TCGTTCACGTGTAGTT | 0.22 kcal/mol
81 | GTAGTCACGTGATTAG | 0.25 kcal/mol
82 | TATATCACGTGTAAAA | 0.38 kcal/mol
83 | GTAGGCACGTGCGGAT | -0.05 kcal/mol
84 | TCGTACACGTGTGGTA | 0.22 kcal/mol
85 | TGTTCCACGTGAGTTG | 0.19 kcal/mol
86 | TCGGGCACGTGTGGAG | -0.04 kcal/mol
87 | TAAGGCACGTGGGCAT | -0.23 kcal/mol
88 | ACATTCACGTGGAGTG | 0.1 kcal/mol
89 | AGTATCACGTGGGCGA | -0.09 kcal/mol
90 | TGCAGCACGTGGGGCG | -0.34 kcal/mol
91 | AGGAGCACGTGGCTGG | -0.11 kcal/mol
92 | CGGAGCACGTGGAGGG | -0.19 kcal/mol
93 | AATAGCACGTGGGAAT | -0.13 kcal/mol
94 | TAGTTCACGTGTCGTG | 0.22 kcal/mol
95 | TTTTTCACGTGATTCG | 0.29 kcal/mol
96 | AAGAGCACGTGAGTTT | 0.1 kcal/mol
97 | TTTGTCACGTGATCTA | 0.1 kcal/mol
98 | TGGGCCACGTGGGCCT | -0.12 kcal/mol
99 | ACAGTCACGTGTATGT | 0.09 kcal/mol
100 | CTTGGCACGTGCTGGG | -0.14 kcal/mol

Row | Sequence | relative binding free energy
101 | TTGGGCACGTGGATAT | 0.04 kcal/mol
102 | GATTTCACGTGTAAGT | 0.46 kcal/mol
103 | AGGCTCACGTGCTTGT | 0.22 kcal/mol
104 | TGTCACACGTGGTGTA | 0.03 kcal/mol
105 | TTCGGCACGTGAAGGG | 0.15 kcal/mol
106 | CGGTTCACGTGGGAGC | 0.27 kcal/mol
107 | GGCTTCACGTGAGTAT | 0.5 kcal/mol
108 | TTTATCACGTGGTTGT | 0.15 kcal/mol
109 | TGATACACGTGTTGAA | 0.11 kcal/mol
110 | TTAGGCACGTGGATTC | -0.04 kcal/mol
111 | AGGTACACGTGTTGAT | 0.08 kcal/mol
112 | GGAAGCACGTGTAGTA | -0.1 kcal/mol
113 | TGTGTCACGTGGCATA | -0.04 kcal/mol
114 | TATAGCACGTGGGGGG | -0.25 kcal/mol
115 | TTAGGCACGTGGTTAG | -0.13 kcal/mol
116 | TGTGACACGTGGTGGT | -0.07 kcal/mol
117 | TGGGTCACGTGGGATG | 0.12 kcal/mol
118 | TATATCACGTGGATCT | 0.2 kcal/mol
119 | TTAGTCACGTGTCTTG | -0.03 kcal/mol
120 | TCGTTCACGTGTCTAG | 0.46 kcal/mol
121 | ATTAACACGTGGCAGG | 0.08 kcal/mol
122 | AGAACCACGTGAGGGG | 0.16 kcal/mol
123 | TGATGCACGTGTTGGA | -0.03 kcal/mol
124 | ATTTCCACGTGTGTAG | 0.09 kcal/mol
125 | AGTTGCACGTGTAAGC | 0.13 kcal/mol

Row | Sequence | relative binding free energy
126 | TGGATCACGTGGTCAT | 0.19 kcal/mol
127 | GTTAGCACGTGGGGTA | -0.18 kcal/mol
128 | ATGGGCACGTGAAGAG | -0.03 kcal/mol
129 | TGGGGCACGTGCGCGA | -0.46 kcal/mol
130 | GATGCCACGTGGAGGG | -0.02 kcal/mol
131 | AGTTTCACGTGGTAGC | 0.21 kcal/mol
132 | TTGTGCACGTGGTCTC | -0.12 kcal/mol
133 | TTGTCCACGTGAGGCG | 0.27 kcal/mol
134 | GCAGGCACGTGGTGTG | -0.16 kcal/mol
135 | GATCACACGTGGAGGT | 0.14 kcal/mol
136 | TTAGACACGTGTGCGG | -0.05 kcal/mol
137 | ACGGGCACGTGTATTT | 0.01 kcal/mol
138 | CGTCTCACGTGGGGGC | -0.01 kcal/mol
139 | GTGGCCACGTGGTTGG | -0.03 kcal/mol
140 | TGGAGCACGTGTGCTA | -0.1 kcal/mol
141 | AAGGCCACGTGGGGTG | -0.18 kcal/mol
142 | GGGTTCACGTGATGTG | 0.46 kcal/mol
143 | GATGTCACGTGTTTGC | 0.08 kcal/mol
144 | CGGGGCACGTGTTCGG | -0.15 kcal/mol
145 | GTATACACGTGATTAG | 0.23 kcal/mol
146 | TTTAACACGTGTGAAT | 0.08 kcal/mol
